From the supplement of paper PMC10126150
Values marked as one replicate rest on one cluster of the flow cell; about a third of the high ones do not repeat.

system: ATP; assay: switch fluorescence ratio, 500 uM ATP over buffer (Cy3 cluster intensity, sum of 5 cycles each) (fold (ratio)); higher = stronger signal-on switching upon ATP binding; sequences stand for … in TCGTCGGCAGCGTCAGATGTGTATAAGAGACAGTTTTTTTTTTTTTTTTTTTTTTTTT…TC; conditions: aptamer strand: ATP DNA aptamer (quencher-CACCTGGGGGAGTATTGCGGAGGAAGG + anchor), 100 nM annealed; ATP concentration: 500 uM; one replicate
In short: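 Cy3-labelled switching-strand clusters on a modified Illumina MiSeq flow-cell were annealed to 100 nM quencher-labelled ATP aptamer, imaged in selection buffer, then imaged after 15 min with 500 uM ATP at 22 °C. Five buffer/ATP cycles ran, with NaOH stripping and re-annealing between them. The fluorescence ratio is summed target-cycle over summed buffer-cycle Cy3 intensity per cluster, averaged per switch-domain sequence. Clusters outside 100-1000 RFU were excluded.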
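Also: ATP exposure 15 min at 22 °C before imaging.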

| Sequence | switch fluorescence ratio |
| --- | --- |
| TTAGATGTCA | 0.993 |
| TGTATCAAAC | 1.02 |
| TGGTTCCCCA | 0.996 |
| TGTACAGGGC | 1.05 |
| CGCGTTCACT | 1.04 |
| GTATGAAGGA | 0.987 |
| TCACATTGC | 1 |
| ATAACTCGTT | 1 |
| GTTACGCGCT | 1 |
| CAGCACTAGT | 1.02 |
| AGAATTAAAT | 0.966 |
| TATGCTCTTA | 0.969 |
| TAAAGATCCC | 1.05 |
| CGTGGTGTAG | 0.997 |
| CTCGGATACC | 1.14 |
| ATCCGTATTG | 1.01 |
| GATGGGACTG | 0.954 |
| TCTGGCGGTT | 1.06 |
| AACTTTCATT | 1.04 |
| AGAACTTGCA | 0.973 |
| AACCACAGGC | 1.1 |
| GCTCTCCTCC | 2.03 |
| TATCGATGCA | 0.982 |
| CATACGCCTC | 3.74 |
| GCTTATTTCG | 0.998 |
| TGGTTTTAC | 1.05 |

| Sequence | switch fluorescence ratio |
| --- | --- |
| GGCGATTGAG | 1.01 |
| GCTTTGTTAG | 1.02 |
| CACTAGGGA | 1.01 |
| AACCGAGATT | 1 |
| CCTTGGGTAA | 1.06 |
| GGGAAACCTA | 1.02 |
| CTAACCCGCG | 1.11 |
| TGCGGCTTAA | 1.02 |
| CGCGTAACGA | 1.03 |
| TAGGATTCCG | 0.933 |
| TTCCCATTCT | 1.05 |
| GGCTAATGAC | 1.01 |
| ATCAATTATT | 1.02 |
| ATCGGGTCTC | 0.988 |
| ACGTGGGTGA | 1.03 |
| CTGGGGCTAT | 1.06 |
| GGGATACCAG | 1.01 |
| TAGGGCGTCA | 1.02 |
| TATCATGCTG | 1 |
| GAACTCATTG | 1 |
| GTACCTCGCG | 0.973 |
| GCACTGGAGG | 0.973 |
| CGACAAGGGT | 1.13 |
| CATATTGTTT | 0.992 |
| AATCAGGCTC | 1.04 |
| AACCGATGT | 0.989 |

| Sequence | switch fluorescence ratio |
| --- | --- |
| GGTAGGGCCG | 1.32 |
| AGCAAGGTTT | 1.05 |
| GGCACTAGTA | 0.97 |
| ACGTAATATT | 1.25 |
| GCGCTTTGTT | 1 |
| GGTTCTTGAG | 0.968 |
| ACCCGGTGCC | 1.42 |
| GGATATTGG | 0.999 |
| TACACGGCAA | 0.839 |
| ACTCATAAAG | 0.947 |
| TTATTGGATG | 0.987 |
| TGGGATGTGT | 0.991 |
| AACTAAACAT | 1.03 |
| AGTGTCCACC | 0.975 |
| CGCCCAGGGT | 4.51 |
| GGGAGTATTG | 0.968 |
| TAGTTACTAT | 0.983 |
| ACACCATGGC | 1.04 |
| CTTAAACGTG | 1.04 |
| CCGTATTGGC | 1.07 |
| CAAATCTTAT | 1.01 |
| AGTAGCTTAC | 1.97 |
| GTTCGCCGTC | 0.968 |
| TTTTGACAGC | 1.04 |
| CGGGCACAGG | 1.34 |
| GAACTCCCAG | 1.16 |

| Sequence | switch fluorescence ratio |
| --- | --- |
| GCAAAGGGGA | 0.998 |
| GAATATGTTG | 0.974 |
| ATAAGTCCG | 0.993 |
| CTTCAAAGA | 1.01 |
| ATGTAATTA | 0.962 |
| GCCGTGGGGA | 1.01 |
| CAGTCTCATT | 1.02 |
| TGAAACTTTA | 0.948 |
| TCCCGAAAAA | 0.976 |
| GACTGAATCT | 1 |
| ATTCGTCTGG | 0.942 |
| GCTGGTAGAA | 0.988 |
| GGCCCCTTTC | 1.04 |
| GTCTATGATT | 0.979 |
| TGCTTCAGTT | 1.03 |
| CTAGAGCCAT | 1.08 |
| CCAATGTTGT | 1.03 |
| AAAGGGATCT | 1.03 |
| GTCGCTGTTT | 0.976 |
| CGACACTGCA | 1.19 |
| TCGGCCGCTA | 1.07 |
| AAAGGCGCAC | 1.1 |
| TCTTGTGATG | 0.985 |
| TGGCCGGCAT | 1.01 |
| ATTCCTCGA | 1.03 |
| TTTTCATG | 0.975 |

| Sequence | switch fluorescence ratio |
| --- | --- |
| GGTCTACGG | 1 |
| TATTAATTTA | 1.02 |
| GTGACGCTGC | 1.75 |
| GGGAGGGTAA | 1.08 |
| GAAAGAAGTG | 1.03 |
| TAGCGAATTT | 1.03 |
| CGTGAGAACC | 1.02 |
| CGGCGGAGA | 1.01 |
| GCCGAGAACA | 0.993 |
| CGGGGTCGCG | 0.982 |
| GGCAGATACG | 1.13 |
| GCACTGATAG | 1.01 |
| CGGTAGTGCC | 1.03 |
| GCGGTAGTGT | 0.944 |
| GGGGATTTAC | 0.991 |
| GTAAAAGC | 1.01 |
| AGGTAAACAG | 0.971 |
| AGGAACGTCC | 1.06 |
| GTCTCTCCCA | 1.11 |
| ACCGGGGTCA | 1 |
| GGGCGGGAGT | 0.998 |
| ACCATGAGGA | 1 |
| GTAACGTACG | 1.51 |
| TGGTCCGGCG | 0.998 |
| TTTTACCTGG | 1.01 |
| TAAGTCAAC | 0.979 |

| Sequence | switch fluorescence ratio |
| --- | --- |
| TTGGAGGGT | 1.52 |
| AGGCCCTATA | 0.974 |
| AAGAGTAAG | 0.991 |
| TGTTGGTTAC | 1.03 |
| GGGGGTCCAC | 0.981 |
| GAACGGCAAG | 1.08 |
| CGTGTTGGAA | 0.99 |
| AACATTCCAA | 1.04 |
| TGGGTATCGC | 0.991 |
| ATGGGTCTTC | 1.02 |
| GCTCTCTGGA | 1.02 |
| TGCAGCAGAG | 1.06 |
| GCTACTTGA | 1.03 |
| ACGGGAACAT | 1.06 |
| GCCCCAAACT | 0.976 |
| GCTAGACAGA | 1.04 |
| GACAGGGAGG | 0.96 |
| TGCTAGTGCC | 1.01 |
| TGCTCTTAAC | 1.05 |
| TTACGGACA | 1.43 |
| TTATGCAGGC | 1.09 |
| TTCGCAAGCT | 1.43 |
| TCTCTGTGTC | 1.07 |
| GTGCCAGCGA | 0.994 |
| AAGAACAAGA | 1.01 |
| GAAAAGCCCG | 1.06 |

| Sequence | switch fluorescence ratio |
| --- | --- |
| CAGTTTAGCA | 1.04 |
| TTGGACCAAA | 0.974 |
| GCCTGATTCA | 1 |
| AAGTTTGATC | 1.01 |
| GGGCCTATCT | 1.01 |
| GGCACACGGT | 1.05 |
| TTGTTCCATT | 1.05 |
| TTCGGCTTG | 0.996 |
| CAGTGATCCG | 0.867 |
| TTAGGCCCTA | 1 |
| AAAGGCCCTG | 0.978 |
| AATGGTGTCA | 0.988 |
| CAACAAGGGG | 1.02 |
| CAACTTGCCG | 1.08 |
| TTACAGACTT | 1.09 |
| TGTTCAGCTC | 1.34 |
| TTTGGGAAGA | 0.995 |
| AACCACGCTC | 1.19 |
| GGAGCAAGCA | 2.91 |
| ACTATAGGGA | 1.03 |
| TTGCGCATTT | 1 |
| ATGTGACGTG | 0.994 |
| ATTCCCTAAA | 1.01 |
| TCTTGCGGGA | 1.02 |
| ATTGCCTCT | 1.04 |
| AAAATGAGAA | 0.991 |

| Sequence | switch fluorescence ratio |
| --- | --- |
| GGGTTCCTGA | 1 |
| ATACTGGTAT | 1.01 |
| AAATCAGACG | 1.04 |
| CGTGAGGCGA | 1.04 |
| CGTGCCATTA | 0.981 |
| TGAGACACCA | 0.986 |
| CGTTACTACC | 1.27 |
| TACTGTATG | 1.13 |
| TAACGGTTTC | 1.15 |
| TGAGTTAACC | 0.984 |
| GCTTGGACCT | 1.12 |
| ATGCGCGTTG | 0.996 |
| CGTCTCCATT | 0.98 |
| CGCGGATCGC | 1.03 |
| TTTGACCCCT | 1.03 |
| CACCGCTGGG | 1.08 |
| CGTTAGCCC | 1.01 |
| CTTCGAATAG | 2.33 |
| GGCGCCAGAG | 0.979 |
